# The list shows a part of the results.
# B1: Tap1 (Sordaria macrospora), Q50IV4 (protein)
# chain: MSHHHHHHHHYTLHLRLINDTSDTLTLVEQTSWWGKNTIWSQVRSTGVHVLSMAASGSSGMLRFQTSKGDFFAVAVGVHNYKRWCDVLVDTADEAPLTKLHPKYYDDKDAKYQALWAQASEFEAKSKSGKTVRIKFYQADGNVLRATVEYL
# How the values were obtained:
# Assay in all cases: glycan array binding signal (z-score within array); higher = stronger binding
# Details in all cases: glycan notation: IUPAC condensed, linker removed
# [1] = biological target: Fuc(a1-3)[Gal(b1-4)]GlcNAc6S
# In short: (§1)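 Columns mapping to the same glycan were averaged after glycan names were converted to IUPAC-condensed notation. The data come from 3228 arrays in the Consortium for Functional Glycomics database, limited to those with an available protein sequence. Binding is reported as a within-array Z-score averaged across arrays of one protein sequence and across linkers.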
# [2] = biological target: Fuc(a1-3)[Gal3S(b1-4)]GlcNAc
# In short: as §1
# [3] = biological target: Fuc(a1-3)[Gal3S(b1-4)]GlcNAc6S
# In short: as §1
# [4] = biological target: Fuc(a1-3)[GalNAc(b1-4)]GlcNAc
# In short: as §1
# Fuc(a1-4)GlcNAc = biological target: Fuc(a1-4)GlcNAc
# In short: as §1
# Fuc(b1-3)GlcNAc = biological target: Fuc(b1-3)GlcNAc
# In short: as §1
# Gal(a1-2)Gal = biological target: Gal(a1-2)Gal
# In short: as §1
# Gal(a1-3)Gal = biological target: Gal(a1-3)Gal
# In short: as §1
# Gal(a1-3)Gal(b1-3)GlcNAc = biological target: Gal(a1-3)Gal(b1-3)GlcNAc
# In short: as §1
# [5] = biological target: Gal(a1-3)Gal(b1-3)GlcNAc(b1-2)Man(a1-3)[Gal(a1-3)Gal(b1-3)GlcNAc(b1-2)Man(a1-6)]Man(b1-4)GlcNAc(b1-4)GlcNAc
# In short: as §1
# [6] = biological target: Gal(a1-3)Gal(b1-3)GlcNAc(b1-3)GalNAc
# In short: as §1
# [7] = biological target: Gal(a1-3)Gal(b1-3)[Fuc(a1-4)]GlcNAc(b1-2)Man(a1-3)[Gal(a1-3)Gal(b1-3)[Fuc(a1-4)]GlcNAc(b1-2)Man(a1-6)]Man(b1-4)GlcNAc(b1-4)GlcNAc
# In short: as §1
# Gal(a1-3)Gal(b1-4)Glc = biological target: Gal(a1-3)Gal(b1-4)Glc
# In short: as §1
# Gal(a1-3)Gal(b1-4)GlcNAc = biological target: Gal(a1-3)Gal(b1-4)GlcNAc
# In short: as §1
# [8] = biological target: Gal(a1-3)Gal(b1-4)GlcNAc(b1-3)GalNAc
# In short: as §1
# [9] = biological target: Gal(a1-3)Gal(b1-4)[Fuc(a1-3)]GlcNAc
# In short: as §1
# [10] = biological target: Gal(a1-3)Gal(b1-4)[Fuc(a1-3)]GlcNAc(b1-2)Man(a1-3)[Gal(a1-3)Gal(b1-4)[Fuc(a1-3)]GlcNAc(b1-2)Man(a1-6)]Man(b1-4)GlcNAc(b1-4)GlcNAc
# In short: as §1
# Gal(a1-3)GalNAc = biological target: Gal(a1-3)GalNAc
# In short: as §1
# [11] = biological target: Gal(a1-3)[Gal(a1-4)]Gal(b1-4)GlcNAc
# In short: as §1
# [12] = biological target: Gal(a1-4)Gal(b1-3)GlcNAc(b1-2)Man(a1-3)[Gal(a1-4)Gal(b1-3)GlcNAc(b1-2)Man(a1-6)]Man(b1-4)GlcNAc(b1-4)GlcNAc
# In short: as §1
# Gal(a1-4)Gal(b1-4)Glc = biological target: Gal(a1-4)Gal(b1-4)Glc
# In short: as §1
# Gal(a1-4)Gal(b1-4)GlcNAc = biological target: Gal(a1-4)Gal(b1-4)GlcNAc
# In short: as §1
# [13] = biological target: Gal(a1-4)Gal(b1-4)GlcNAc(b1-2)Man(a1-3)[Gal(a1-4)Gal(b1-4)GlcNAc(b1-2)Man(a1-6)]Man(b1-4)GlcNAc(b1-4)GlcNAc
# In short: as §1
# [14] = biological target: Gal(a1-4)Gal(b1-4)GlcNAc(b1-3)Gal(b1-4)Glc
# In short: as §1
# Gal(a1-4)GlcNAc = biological target: Gal(a1-4)GlcNAc
# In short: as §1
# Gal(a1-6)Glc = biological target: Gal(a1-6)Glc
# In short: as §1
# Gal(b1-2)Gal = biological target: Gal(b1-2)Gal
# In short: as §1
# Gal(b1-3)Gal = biological target: Gal(b1-3)Gal
# In short: as §1
# Gal(b1-3)Gal(b1-4)GlcNAc = biological target: Gal(b1-3)Gal(b1-4)GlcNAc
# In short: as §1
# [15] = biological target: Gal(b1-3)Gal(b1-4)GlcNAc(b1-2)Man(a1-3)[Gal(b1-3)Gal(b1-4)GlcNAc(b1-2)Man(a1-6)]Man(b1-4)GlcNAc(b1-4)GlcNAc
# In short: as §1
# Gal(b1-3)GalNAc = biological target: Gal(b1-3)GalNAc
# In short: as §1
# [16] = biological target: Gal(b1-3)GalNAc(a1-3)[Fuc(a1-2)]Gal(b1-4)Glc
# In short: as §1
# [17] = biological target: Gal(b1-3)GalNAc(a1-3)[Fuc(a1-2)]Gal(b1-4)GlcNAc
# In short: as §1
# [18] = biological target: Gal(b1-3)GalNAc(b1-3)Gal(a1-4)Gal(b1-4)Glc
# In short: as §1
# [19] = biological target: Gal(b1-3)GalNAc(b1-4)Gal(b1-4)Glc
# In short: as §1
# [20] = biological target: Gal(b1-3)GalNAc(b1-4)[Neu5Ac(a2-3)]Gal(b1-4)Glc
# In short: as §1
# Gal(b1-3)GlcNAc = biological target: Gal(b1-3)GlcNAc
# In short: as §1
# [21] = biological target: Gal(b1-3)GlcNAc(a1-6)Gal(b1-4)GlcNAc
# In short: as §1
# [22] = biological target: Gal(b1-3)GlcNAc(b1-2)Man(a1-3)[Gal(b1-3)GlcNAc(b1-2)Man(a1-6)]Man(b1-4)GlcNAc(b1-4)GlcNAc
# In short: as §1
# [23] = biological target: Gal(b1-3)GlcNAc(b1-2)Man(a1-3)[Gal(b1-3)GlcNAc(b1-2)Man(a1-6)]Man(b1-4)GlcNAc(b1-4)[Fuc(a1-6)]GlcNAc
# In short: as §1
# [24] = biological target: Gal(b1-3)GlcNAc(b1-2)[Gal(b1-3)GlcNAc(b1-6)]Man(a1-6)[Gal(b1-3)GlcNAc(b1-2)Man(a1-3)]Man(b1-4)GlcNAc(b1-4)GlcNAc
# In short: as §1
# [25] = biological target: Gal(b1-3)GlcNAc(b1-3)Gal(b1-3)GlcNAc
# In short: as §1
# [26] = biological target: Gal(b1-3)GlcNAc(b1-3)Gal(b1-4)Glc
# In short: as §1
# [27] = biological target: Gal(b1-3)GlcNAc(b1-3)Gal(b1-4)GlcNAc
# In short: as §1
# [28] = biological target: Gal(b1-3)GlcNAc(b1-3)Gal(b1-4)GlcNAc(b1-6)[Gal(b1-3)GlcNAc(b1-3)]Gal(b1-4)Glc
# In short: as §1
binder,measurement,setting,value
B1,glycan array binding signal (z-score),[1],-0.148
same,glycan array binding signal (z-score),[2],-0.221
same,glycan array binding signal (z-score),[3],-0.127
same,glycan array binding signal (z-score),[4],-0.23
same,glycan array binding signal (z-score),Fuc(a1-4)GlcNAc,-0.244
same,glycan array binding signal (z-score),Fuc(b1-3)GlcNAc,-0.241
same,glycan array binding signal (z-score),Gal(a1-2)Gal,-0.248
same,glycan array binding signal (z-score),Gal(a1-3)Gal,-0.245
same,glycan array binding signal (z-score),Gal(a1-3)Gal(b1-3)GlcNAc,-0.246
same,glycan array binding signal (z-score),[5],-0.108
same,glycan array binding signal (z-score),[6],0.205
same,glycan array binding signal (z-score),[7],-0.165
same,glycan array binding signal (z-score),Gal(a1-3)Gal(b1-4)Glc,-0.247
same,glycan array binding signal (z-score),Gal(a1-3)Gal(b1-4)GlcNAc,-0.251
same,glycan array binding signal (z-score),[8],0.024
same,glycan array binding signal (z-score),[9],-0.245
same,glycan array binding signal (z-score),[10],-0.182
same,glycan array binding signal (z-score),Gal(a1-3)GalNAc,-0.09
same,glycan array binding signal (z-score),[11],-0.23
same,glycan array binding signal (z-score),[12],-0.221
same,glycan array binding signal (z-score),Gal(a1-4)Gal(b1-4)Glc,-0.22
same,glycan array binding signal (z-score),Gal(a1-4)Gal(b1-4)GlcNAc,-0.214
same,glycan array binding signal (z-score),[13],-0.202
same,glycan array binding signal (z-score),[14],-0.226
same,glycan array binding signal (z-score),Gal(a1-4)GlcNAc,-0.235
same,glycan array binding signal (z-score),Gal(a1-6)Glc,-0.248
same,glycan array binding signal (z-score),Gal(b1-2)Gal,-0.207
same,glycan array binding signal (z-score),Gal(b1-3)Gal,-0.228
same,glycan array binding signal (z-score),Gal(b1-3)Gal(b1-4)GlcNAc,-0.158
same,glycan array binding signal (z-score),[15],-0.225
same,glycan array binding signal (z-score),Gal(b1-3)GalNAc,3.97
same,glycan array binding signal (z-score),[16],0.824
same,glycan array binding signal (z-score),[17],1.14
same,glycan array binding signal (z-score),[18],-0.214
same,glycan array binding signal (z-score),[19],-0.206
same,glycan array binding signal (z-score),[20],-0.256
same,glycan array binding signal (z-score),Gal(b1-3)GlcNAc,-0.21
same,glycan array binding signal (z-score),[21],-0.254
same,glycan array binding signal (z-score),[22],-0.198
same,glycan array binding signal (z-score),[23],-0.21
same,glycan array binding signal (z-score),[24],-0.179
same,glycan array binding signal (z-score),[25],-0.236
same,glycan array binding signal (z-score),[26],-0.23
same,glycan array binding signal (z-score),[27],-0.228
same,glycan array binding signal (z-score),[28],-0.217

# From the supplement of paper PMC8728848
